# Some of the results follow.
# Tests used:
# Assay in all cases: glycan array binding signal (z-score within array); higher = stronger binding
# Details in all cases: glycan notation: IUPAC condensed, linker removed
# Gal(b1-4)Glc = target: Gal(b1-4)Glc
# Procedure, shortened: (§1)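 Arrays were curated from the Consortium for Functional Glycomics database, 3228 in total, and kept only where the protein sequence was available. Binding is expressed as a within-array Z-score. This score was averaged across arrays of the same protein sequence at different concentrations or buffers and across linkers, and negative values can be read as non-binding.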
# Gal(b1-4)Glc6S = target: Gal(b1-4)Glc6S
# Procedure, shortened: as §1
# Gal(b1-4)GlcNAc = target: Gal(b1-4)GlcNAc
# Procedure, shortened: as §1
# [1] = target: Gal(b1-4)GlcNAc(a1-6)Gal(b1-4)GlcNAc
# Procedure, shortened: as §1
# Gal(b1-4)GlcNAc(b1-2)Man = target: Gal(b1-4)GlcNAc(b1-2)Man
# Procedure, shortened: as §1
# [2] = target: Gal(b1-4)GlcNAc(b1-2)Man(a1-3)Man(b1-4)GlcNAc(b1-4)GlcNAc
# Procedure, shortened: as §1
# [3] = target: Gal(b1-4)GlcNAc(b1-2)Man(a1-3)[Gal(b1-4)GlcNAc(b1-2)Man(a1-6)]Man(b1-4)GlcNAc(b1-4)GlcNAc
# Procedure, shortened: as §1
# [4] = target: Gal(b1-4)GlcNAc(b1-2)Man(a1-3)[Gal(b1-4)GlcNAc(b1-2)Man(a1-6)]Man(b1-4)GlcNAc(b1-4)[Fuc(a1-6)]GlcNAc
# Procedure, shortened: as §1
# [5] = target: Gal(b1-4)GlcNAc(b1-2)Man(a1-3)[Gal(b1-4)GlcNAc(b1-2)Man(a1-6)][Gal(b1-4)GlcNAc(b1-4)]Man(b1-4)GlcNAc(b1-4)[Fuc(a1-6)]GlcNAc
# Procedure, shortened: as §1
# [6] = target: Gal(b1-4)GlcNAc(b1-2)Man(a1-3)[Gal(b1-4)GlcNAc(b1-2)Man(a1-6)][GlcNAc(b1-4)]Man(b1-4)GlcNAc(b1-4)[Fuc(a1-6)]GlcNAc
# Procedure, shortened: as §1
# [7] = target: Gal(b1-4)GlcNAc(b1-2)Man(a1-3)[GlcNAc(b1-2)Man(a1-6)]Man(b1-4)GlcNAc(b1-4)GlcNAc
# Procedure, shortened: as §1
# [8] = target: Gal(b1-4)GlcNAc(b1-2)Man(a1-3)[GlcNAc(b1-4)][Gal(b1-4)GlcNAc(b1-2)Man(a1-6)]Man(b1-4)GlcNAc(b1-4)GlcNAc
# Procedure, shortened: as §1
# [9] = target: Gal(b1-4)GlcNAc(b1-2)Man(a1-3)[Man(a1-6)]Man(b1-4)GlcNAc(b1-4)GlcNAc
# Procedure, shortened: as §1
# [10] = target: Gal(b1-4)GlcNAc(b1-2)Man(a1-6)Man(b1-4)GlcNAc(b1-4)GlcNAc
# Procedure, shortened: as §1
# [11] = target: Gal(b1-4)GlcNAc(b1-2)Man(a1-6)[GlcNAc(b1-2)Man(a1-3)]Man(b1-4)GlcNAc(b1-4)GlcNAc
# Procedure, shortened: as §1
# [12] = target: Gal(b1-4)GlcNAc(b1-2)Man(a1-6)[Man(a1-3)]Man(b1-4)GlcNAc(b1-4)GlcNAc
# Procedure, shortened: as §1
# [13] = target: Gal(b1-4)GlcNAc(b1-2)[Gal(b1-4)GlcNAc(b1-4)]Man(a1-3)[Gal(b1-4)GlcNAc(b1-2)Man(a1-6)]Man(b1-4)GlcNAc(b1-4)GlcNAc
# Procedure, shortened: as §1
# [14] = target: Gal(b1-4)GlcNAc(b1-2)[Gal(b1-4)GlcNAc(b1-4)]Man(a1-3)[Gal(b1-4)GlcNAc(b1-2)[Gal(b1-4)GlcNAc(b1-6)]Man(a1-6)]Man(b1-4)GlcNAc(b1-4)GlcNAc
# Procedure, shortened: as §1
# [15] = target: Gal(b1-4)GlcNAc(b1-2)[Gal(b1-4)GlcNAc(b1-4)]Man(a1-3)[GlcNAc(b1-4)][Gal(b1-4)GlcNAc(b1-2)Man(a1-6)]Man(b1-4)GlcNAc(b1-4)GlcNAc
# Procedure, shortened: as §1
# [16] = target: Gal(b1-4)GlcNAc(b1-2)[Gal(b1-4)GlcNAc(b1-4)]Man(a1-3)[GlcNAc(b1-4)][Gal(b1-4)GlcNAc(b1-2)[Gal(b1-4)GlcNAc(b1-6)]Man(a1-6)]Man(b1-4)GlcNAc(b1-4)GlcNAc
# Procedure, shortened: as §1
# [17] = target: Gal(b1-4)GlcNAc(b1-2)[Gal(b1-4)GlcNAc(b1-6)]Man(a1-6)[Gal(b1-4)GlcNAc(b1-2)Man(a1-3)]Man(b1-4)GlcNAc(b1-4)GlcNAc
# Procedure, shortened: as §1
# [18] = target: Gal(b1-4)GlcNAc(b1-2)[Gal(b1-4)GlcNAc(b1-6)]Man(a1-6)[Gal(b1-4)GlcNAc(b1-2)Man(a1-3)]Man(b1-4)GlcNAc(b1-4)[Fuc(a1-6)]GlcNAc
# Procedure, shortened: as §1
binder,measurement,setting,value
AT1G15820(NC) (Arabidopsis thaliana) (protein) MAMAVSGAVLSGLGSSFLTGGKRGATALASGVGDAIAPFSFGSLLGTQLLLMGWVESKRWVDFFNPDSQSVEWATPWSKTAENFANYTGDQGYPGGRFFDPLGLAGKNRDGVYEPDFEKLERLKLAEIKHSRLAMVAMLIFYFEAGQGKTPLGALGL,glycan array binding signal (z-score),Gal(b1-4)Glc,0.051
same,glycan array binding signal (z-score),Gal(b1-4)Glc6S,0.369
same,glycan array binding signal (z-score),Gal(b1-4)GlcNAc,-0.455
same,glycan array binding signal (z-score),[1],0.124
same,glycan array binding signal (z-score),Gal(b1-4)GlcNAc(b1-2)Man,-0.121
same,glycan array binding signal (z-score),[2],0.067
same,glycan array binding signal (z-score),[3],-0.635
same,glycan array binding signal (z-score),[4],0.043
same,glycan array binding signal (z-score),[5],-0.427
same,glycan array binding signal (z-score),[6],-0.274
same,glycan array binding signal (z-score),[7],-0.483
same,glycan array binding signal (z-score),[8],-0.435
same,glycan array binding signal (z-score),[9],-0.554
same,glycan array binding signal (z-score),[10],-0.602
same,glycan array binding signal (z-score),[11],-0.325
same,glycan array binding signal (z-score),[12],-0.331
same,glycan array binding signal (z-score),[13],-0.531
same,glycan array binding signal (z-score),[14],-0.478
same,glycan array binding signal (z-score),[15],0.134
same,glycan array binding signal (z-score),[16],-0.213
same,glycan array binding signal (z-score),[17],-0.585
same,glycan array binding signal (z-score),[18],-0.328
